Reference: publication PMC4336329 (PLoS ONE, 2015)
About 2,200 (0.71%) of roughly 310,000 compounds showed an effect of 50% or more. The effect is printed as a negative number. The list shows a part of the results.

Target: human ether-à-go-go-related gene (hERG) potassium channel (human, UniProt Q12809)
Assay: primary screen, population patch clamp on CHO cells stably expressing hERG

human ether-à-go-go-related gene (hERG) potassium channel, sequence (Q12809 whole entry, looked up): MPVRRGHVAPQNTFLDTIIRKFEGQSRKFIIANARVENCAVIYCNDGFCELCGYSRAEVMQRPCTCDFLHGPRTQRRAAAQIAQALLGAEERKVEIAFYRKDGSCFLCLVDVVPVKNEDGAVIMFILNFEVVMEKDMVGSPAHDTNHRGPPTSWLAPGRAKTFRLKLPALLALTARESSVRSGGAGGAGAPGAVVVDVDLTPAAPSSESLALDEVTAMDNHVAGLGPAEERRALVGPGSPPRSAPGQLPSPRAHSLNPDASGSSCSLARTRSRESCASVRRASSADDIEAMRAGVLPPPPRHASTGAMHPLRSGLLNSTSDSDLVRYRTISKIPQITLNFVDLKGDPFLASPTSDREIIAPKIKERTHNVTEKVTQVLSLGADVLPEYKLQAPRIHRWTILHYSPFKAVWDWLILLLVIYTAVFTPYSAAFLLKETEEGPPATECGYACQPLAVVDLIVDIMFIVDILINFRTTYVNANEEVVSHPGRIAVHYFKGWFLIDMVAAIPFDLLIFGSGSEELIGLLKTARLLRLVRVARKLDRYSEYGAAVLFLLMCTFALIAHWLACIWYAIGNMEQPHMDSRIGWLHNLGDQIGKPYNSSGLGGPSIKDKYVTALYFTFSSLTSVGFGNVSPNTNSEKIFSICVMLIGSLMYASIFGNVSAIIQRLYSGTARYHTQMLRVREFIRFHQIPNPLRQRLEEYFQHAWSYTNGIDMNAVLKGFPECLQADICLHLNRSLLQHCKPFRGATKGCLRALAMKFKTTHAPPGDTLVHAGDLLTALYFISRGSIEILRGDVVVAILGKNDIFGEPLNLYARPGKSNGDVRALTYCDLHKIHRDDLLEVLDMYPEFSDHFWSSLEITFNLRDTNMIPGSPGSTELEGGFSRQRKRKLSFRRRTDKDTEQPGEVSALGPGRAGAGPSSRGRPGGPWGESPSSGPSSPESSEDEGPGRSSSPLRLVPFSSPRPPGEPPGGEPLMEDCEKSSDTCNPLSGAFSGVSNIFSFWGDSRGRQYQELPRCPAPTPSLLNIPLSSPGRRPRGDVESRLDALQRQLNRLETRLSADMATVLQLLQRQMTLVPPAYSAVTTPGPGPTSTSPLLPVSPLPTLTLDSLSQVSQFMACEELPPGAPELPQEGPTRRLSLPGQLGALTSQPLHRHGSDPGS

| Compound | hERG current change (%, negative = inhibition) at 1uM [%] |
| --- | --- |
| O=C(c1cccc(-n2cccc2)c1)N1CCN(S(=O)(=O)c2ccccc2)CC1 | -0.678 |
| CCNC(=O)c1ccc(OCC(=O)Nc2ccc(F)cc2)c(OC)c1 | 0.741 |
| CCCn1nc(-c2nnc(-c3ccc(C)c(C)c3)o2)c2ccccc2c1=O | -7.16 |
| Cc1ncc([N+](=O)[O-])n1CCOC(=O)c1cc(Cl)cc(Cl)c1N | -19.6 |
| CCC(C)n1c(=N)c(C#N)cc2c(=O)n3cc(C)ccc3nc21 (centres unmarked) | -22 |
| O=C(CSCC(=O)NCc1ccco1)NCc1ccco1 | -9.26 |
| O=S(=O)(c1cccs1)N1CCN(Cc2nc3ccccc3s2)CC1 | 8.4 |
| O=c1cc(-c2ccccc2Cl)oc2cccc(O)c12 | -6.04 |
| CCN(CC)S(=O)(=O)c1ccc(NC(=S)NC(=O)CC(C)C)cc1 | 14.1 |
| CC(CN1CCOCC1)OC(=O)C1COc2ccccc2O1.Cl (centres unmarked) | 7.15 |
| COc1ccc(-c2noc(CN(C)C(=O)c3ccc4c(c3)OCO4)n2)cc1 | 11.6 |
| Cc1ccc(CN2CCN(/N=C/c3cc(Br)cc(Br)c3O)CC2)cc1 | 3.7 |
| C=CCc1cc(OC)ccc1OCC(O)CN1CCN(c2ccc(OC)cc2)CC1.Cl (centres unmarked) | -38.1 |
| O=P(Nc1c(Cl)cccc1Cl)(c1ccccc1)c1nc2c(s1)CCCC2 (centres unmarked) | 8.68 |
| COc1ccc(/C=C/c2c(-c3ccc(OC)cc3)oc3ccccc23)cc1 | 5.68 |
| Cn1ccnc1SCC(=O)NC12CC3CC(CC(C3)C1)C2 | 20.3 |
| Cc1ccc(OCC(=O)N(C)CCc2ccccn2)cc1 | 8.87 |
| O=C(NCc1cccc(Br)c1)C1CC(c2ccccc2[N+](=O)[O-])=NO1 (centres unmarked) | 1.77 |
| CN(C)S(=O)(=O)c1ccc(C(=O)NCCOc2ccccc2)cc1 | 3.42 |
| CSc1ccc(S(=O)(=O)NCCSC(C)(C)C)cc1 | 0.386 |
| Cc1cccc(NC(=O)CCN2C(=O)c3ccccc3S2(=O)=O)c1C | 8.97 |
| Cc1cccc(C)c1NC(=O)NCCCN1CCN(c2ccccc2)CC1 | -12.1 |
| O=C1N(CCCN2C(=O)C3(OCCO3)c3ccccc32)c2ccccc2C12OCCO2 | 3.67 |

| Compound | hERG current change (%, negative = inhibition) at 1uM [%] |
| --- | --- |
| CC1CCN(c2ccc3nnc(CCC(=O)NCCCOC(C)C)n3n2)CC1 | 11.6 |
| CC(=O)Nc1ccc(OCC(O)Cn2nc(C)c(C)c2C)cc1 (centres unmarked) | 11.1 |
| O=C(NC1CCCCCC1)c1cccc(COCC(F)(F)F)c1 | 0.152 |
| CC(C)n1c(N2CCN(CC(=O)NCc3cccs3)CC2)nc2ccccc21 | -30.9 |
| CC(C)C(OC(=O)c1cccs1)C(=O)NCc1ccccc1 (centres unmarked) | 0.497 |
| CC1CCN(C(=O)Cn2c(SCC(=O)Nc3nccs3)nc3ccccc32)CC1 | -5.8 |
| COc1ccccc1N1CCN(/N=C/c2cc(Br)ccc2F)CC1 | 14.9 |
| CCc1ccccc1NC(=O)Nc1cc(F)ccc1F | 6.16 |
| S=c1[nH]nc(-c2ccccc2)n1/N=C/C=C/c1ccco1 | 18.6 |
| O=C(CCc1nnc(-c2ccsc2)o1)N1CCCCC1CCn1ccnc1 (centres unmarked) | 2.53 |
| CC(C)[C@H](NC(=O)N1CC(=O)Nc2ccccc21)C(=O)Nc1nccs1 | 24.4 |
| CCC1CCCCN1C(=S)NC(=O)c1ccc(F)c(S(=O)(=O)N2CCOCC2)c1 (centres unmarked) | 9.07 |
| COc1ccc(N2CCC(CNC(=S)Nc3cccc(C)c3)C2)cc1 (centres unmarked) | 13.7 |
| O=C(O)c1ccc(-n2nc(C(F)(F)F)c3c2-c2ccoc2CC3)cc1 | 13.6 |
| O=S(=O)(c1ccc2c(c1)OCCO2)N1CCN(c2nc(-c3cccnc3)nc3ccccc23)CC1 | -2.23 |
| CC(C)(C)C(=O)NC1(C(F)(F)F)NC(=O)N(c2ccc(F)cc2)C1=O (centres unmarked) | -4.36 |
| COC(=O)c1cc(N2CCNCC2)nc2ccccc12.Cl | 5.27 |
| Cc1sc(-c2ccncc2)nc1OC(=O)c1ccc(F)cc1F | 17.8 |
| Fc1ccc(Cn2nnc(-c3ccc(Cl)cc3)n2)cc1 | 11.5 |
| COc1ccc(C(=O)N/C(=C\c2ccccc2)C(=O)Nc2ccccc2C(=O)O)cc1 | 13.7 |
| Cc1cc(C(=O)Nc2ccccc2N2CCOCC2)c(C)o1 | 2.21 |
| CCc1cccc(C)c1NC(=O)CSc1nc(-c2ccccc2F)nc2nc[nH]c12 | 6.87 |
| c1coc(C2OCC3(CO2)COC(c2ccco2)OC3)c1 (centres unmarked) | 13.3 |

| Compound | hERG current change (%, negative = inhibition) at 1uM [%] |
| --- | --- |
| O=C(CCNC(=O)c1ccc(Br)cc1)NC1CCCCCC1 | 8.96 |
| O=C(Nc1ccccc1)N1N=C(c2ccc(F)cc2)CC1c1ccc(F)cc1 (centres unmarked) | -2.22 |
| COc1ccc(OCCSc2nnc(CCNC(=O)c3ccc(Cl)c(Cl)c3)n2C)cc1 | -2.01 |
| COc1cccc(CN2CCN(C(=O)Cc3ccccc3OC)CC2)c1 | 21.1 |
| CC(=C/C(=O)[O-])/C=C/c1ccco1.[Na+] | 12.9 |
| CCc1cc(=O)oc2c(C)c(OCC(=O)NCCCN3CCCC3=O)ccc12 | 8.98 |
| c1ccc2c(NC3CCCC3)nnc(NC3CCCC3)c2c1 | -70.4 |
| O=C(/C=C/c1ccccc1)Nc1ccc(S(=O)(=O)N2CCOCC2)cc1 | 13.5 |
| O=C(Nc1c(Cl)cc(Cl)cc1C(=O)NCCN1CCOCC1)c1cccc([N+](=O)[O-])c1 | 3.41 |
| OCCNC(=S)Nc1cc(Cl)cc(Cl)c1 | 13.9 |
| O=C(/C=C/c1ccco1)Nc1cccnc1Cl | 13.5 |
| Cc1ccc(NC(=O)COc2ccccc2)c(NC(=O)c2ccco2)c1 | -0.0071 |
| COc1ccc(OC)c(NC=C2C(=O)OC(C)(C)OC2=O)c1 | 14.6 |
| NC(=O)CC(NC(=O)c1ccccc1)c1ccc(NCC2CC2)c([N+](=O)[O-])c1 (centres unmarked) | -11.3 |
| O=C(O)C(O)C(O)c1nc2ccccc2[nH]1 (centres unmarked) | 7.71 |
| CN1CCc2c(sc3c2c(=O)n(-c2ccccc2)c2nnc(SCc4ccc(Cl)cc4)n32)C1 | 7.2 |
| COc1ccc(-c2nc(CS(=O)CC(=O)NCc3ccc4c(c3)OCO4)c(C)o2)cc1 (centres unmarked) | -0.166 |
| COc1ccc2[nH]cc(C(=O)N3CCCCC3)c(=O)c2c1 | 14.9 |
| CCSc1nnc(NC(=O)CSC2=NN3CCCC(=O)N=C3S2)s1 | 4.54 |
| Cc1cc(C)c(NC(=O)CSc2nc(=O)n3cc(C)ccc3n2)c(C)c1 | 11.3 |
| O=C(O)C1C2CCC(O2)C1C(=O)Nc1ccccc1Br (centres unmarked) | 20 |
| COc1ccc(NC(=O)CSc2nnc3ccc(-c4ccncc4)nn23)cc1 | 8.08 |
| Cl.N[C@@H](CO)c1nnc([C@H](CCC(=O)O)NC(=O)C2CCNCC2)o1 | 15.3 |

| Compound | hERG current change (%, negative = inhibition) at 1uM [%] |
| --- | --- |
| Cc1[nH]c2ccccc2c1C(=O)NS(=O)(=O)Nc1ccc(F)cc1 | 13.9 |
| O=[N+]([O-])c1ccc(Cl)c(/C=N/N2CCN(Cc3ccccc3Cl)CC2)c1 | -0.496 |
| O=C(CSc1nnc(C23CC4CC(CC(C4)C2)C3)o1)Nc1ccc(N2CCOCC2)c(Cl)c1 | 14.6 |
| c1ccc2cc(OCCOCCOc3ccc4ccccc4c3)ccc2c1 | 2.25 |
| COc1ccc(OCC(O)CN2CCc3ccccc3C2)cc1.Cl (centres unmarked) | -2.53 |
| CCN(CC(=O)Nc1ccc2c(c1)OCCO2)C(=O)CCOc1ccccc1 | 6.8 |
| CCOc1ccc(CCNC(=O)CN2C(=O)c3cccnc3Oc3ccc(C)cc32)cc1OCC | 3.44 |
| Cc1ccc(OCc2ccc(C(=O)NN)o2)cc1C | 10.9 |
| Cc1ccc(C(=O)c2cnc3ccccc3c2-c2ccccc2)cc1 | 7.14 |
| O=C(CCn1c(=O)sc2ccccc21)Nc1ccon1 | 4.85 |
| NC(=O)C1CCN(Cc2nc3c(Br)cc(Br)cc3c(=O)[nH]2)CC1 | 4.73 |
| COc1cccc(C(=O)NC(c2ccccc2)C2CCCC2)c1 (centres unmarked) | 12.5 |
| O=C(COc1ccc(Cl)cc1)Nc1ccc(C(=O)NCc2cccnc2)cc1 | 7.27 |
| Cn1c(=O)c2c(nc(N/N=C/c3ccc(OC(=O)c4ccco4)cc3)n2Cc2ccc(F)cc2)n(C)c1=O | 3.14 |
| C=CCn1nc(-c2ccccc2)cc1C(=O)OCC | 14.6 |
| CC1CCc2sc(C(=O)N=Nc3c(O)[nH]c4ccccc34)cc2C1 (centres unmarked) | 12.7 |
| CCn1nnc2cc(C(=O)Nc3cc(S(C)(=O)=O)ccc3Cl)ccc21 | 12.1 |
| CN(CC(=O)Nc1ccccc1Cl)C(=O)COC(=O)/C=C/c1cccs1 | 3.64 |
| COc1ccc(Nc2nc(N)c3ccccc3n2)c(OC)c1.Cl | 7.66 |
| Cc1[nH]c2ccccc2c1-c1csc(NC(=O)CSCCO)n1 | 7.67 |
